The results in this text go back to patent US9873709B2 (priority 2013, dated 2018).

For this test, the target named is isolated recombinant JAK1 kinase domain (Homo sapiens (Human), UniProt P23458). As to conditions: read-out: JAK1 Ki; isolated recombinant JAK1 kinase domain, 25 μM ATP.
On to `O=C(CCC(F)(F)F)N1CC=C(c2cccn3nc(Nc4ccc(C(=O)N5CCC6(CCCNC6)CC5)cc4)nc23)CC1` [Example 2-191, 1-[4-[2-[4-(2,9-diazaspiro[5.5]undecane-9-carbonyl)anilino]-[1,2,4]triazolo[1,5-a]pyridin-8-yl]-3,6-dihydro-2H-pyridin-1-yl]-4,4,4-trifluoro-butan-1-one], for which the Ki – broadly, a dissociation constant, usually derived from enzyme kinetics or from competition with a known ligand – came out at 1.33 nM.
Regarding `O=C(NCC1CCCNC1)c1ccc(Nc2nc3c(C4=CCN(C(=O)CCC(F)(F)F)CC4)cccn3n2)cc1` (stereo not shown) [Example 2-192, N-(3-piperidylmethyl)-4-[[8-[1-(4,4,4-trifluorobutanoyl)-3,6-dihydro-2H-pyridin-4-yl]-[1,2,4]triazolo[1,5-a]pyridin-2-yl]amino]benzamide], the Ki is 0.58 nM.
For `O=C(NCCC1CCCNC1)c1ccc(Nc2nc3c(C4=CCN(C(=O)CCC(F)(F)F)CC4)cccn3n2)cc1` (stereo not shown) [Example 2-193, N-[2-(3-piperidyl)ethyl]-4-[[8-[1-(4,4,4-trifluorobutanoyl)-3,6-dihydro-2H-pyridin-4-yl]-[1,2,4]triazolo[1,5-a]pyridin-2-yl]amino]benzamide], the Ki stood at 1.5 nM.
Regarding `NCCNC(=O)c1ccc(Nc2nc3c(C4=CCN(C(=O)CCC(F)(F)F)CC4)cccn3n2)cc1` [Example 2-194, N-(2-aminoethyl)-4-[[8-[1-(4,4,4-trifluorobutanoyl)-3,6-dihydro-2H-pyridin-4-yl]-[1,2,4]triazolo[1,5-a]pyridin-2-yl]amino]benzamide], the inhibition constant (Ki) was found to be 1.54 nM.
With `O=C(CCC(F)(F)F)N1CC=C(c2cccn3nc(Nc4ccc(C(=O)N5CCCNCC5)cc4)nc23)CC1` [Example 2-195, 1-[4-[2-[4-(1,4-diazepane-1-carbonyl)anilino]-[1,2,4]triazolo[1,5-a]pyridin-8-yl]-3,6-dihydro-2H-pyridin-1-yl]-4,4,4-trifluoro-butan-1-one], the Ki turned out to be 0.66 nM.
The result for `CC1CN(C(=O)c2ccc(Nc3nc4c(C5=CCN(C(=O)CCC(F)(F)F)CC5)cccn4n3)cc2)CCN1` (stereo not shown) [Example 2-196, 4,4,4-trifluoro-1-[4-[2-[4-(3-methylpiperazine-1-carbonyl)anilino]-[1,2,4]triazolo[1,5-a]pyridin-8-yl]-3,6-dihydro-2H-pyridin-1-yl]butan-1-one] reads 1.11 nM; that for `O=C(CCC(F)(F)F)N1CC=C(c2cccn3nc(Nc4ccc(C(=O)N5CCC6(CCN6)CC5)cc4)nc23)CC1` [Example 2-197, 1-[4-[2-[4-(1,7-diazaspiro[3.5]nonane-7-carbonyl)anilino]-[1,2,4]triazolo[1,5-a]pyridin-8-yl]-3,6-dihydro-2H-pyridin-1-yl]-4,4,4-trifluoro-butan-1-one], 1.71 nM; that for `O=C(CCC(F)(F)F)N1CC=C(c2cccn3nc(Nc4ccc(C(=O)N5CCC6(CCCN6)CC5)cc4)nc23)CC1` [Example 2-198, 1-[4-[2-[4-(1,8-diazaspiro[4.5]decane-8-carbonyl)anilino]-[1,2,4]triazolo[1,5-a]pyridin-8-yl]-3,6-dihydro-2H-pyridin-1-yl]-4,4,4-trifluoro-butan-1-one], 1.45 nM.
`CN(Cc1ccccn1)C(=O)c1ccc(Nc2nc3c(C4=CCN(C(=O)CCC(F)(F)F)CC4)cccn3n2)cc1` [Example 2-199, N-methyl-N-(2-pyridylmethyl)-4-[[8-[1-(4,4,4-trifluorobulanoyl)-3,6-dihydro-2H-pyridin-4-yl]-[1,2,4]triazolo[1,5-a]pyridin-2-yl]amino]benzamide]: the inhibition constant (Ki) stood at 1.04 nM.
The result for `O=C(CCC(F)(F)F)N1CC=C(c2cccn3nc(Nc4ccc(C(=O)N5CCN6CCCC6C5)cc4)nc23)CC1` (stereo not shown) [Example 2-200, 1-[4-[2-[4-(3,4,6,7,8,8a-hexahydro-1H-pyrrolo[1,2-a]pyrazine-2-carbonyl)anilino]-[1,2,4]triazolo[1,5-a]pyridin-8-yl]-3,6-dihydro-2H-pyridin-1-yl]-4,4,4-trifluoro-butan-1-one] reads 1.85 nM; that for `CN1CC2CC(C1)N(C(=O)c1ccc(Nc3nc4c(C5=CCN(C(=O)CCC(F)(F)F)CC5)cccn4n3)cc1)C2` (stereo not shown) [Example 2-201, 4,4,4-trifluoro-1-[4-[2-[4-(3-methyl-3,6-diazabicyclo[3.2.1]octane-6-carbonyl)anilino]-[1,2,4]triazolo[1,5-a]pyridin-8-yl]-3,6-dihydro-2H-pyridin-1-yl]butan-1-one], 1.86 nM; that for `O=C(CCC(F)(F)F)N1CC=C(c2cccn3nc(Nc4ccc(C(=O)N5CCN(C6CC6)CC5)cc4)nc23)CC1` [Example 2-202, 1-[4-[2-[4-(4-cyclopropylpiperazine-1-carbonyl)anilino]-[1,2,4]triazolo[1,5-a]pyridin-8-yl]-3,6-dihydro-2H-pyridin-1-yl]-4,4,4-trifluoro-butan-1-one], 1.04 nM.
The value for `Cn1ccnc1CN1CCN(C(=O)c2ccc(Nc3nc4c(C5=CCN(C(=O)CCC(F)(F)F)CC5)cccn4n3)cc2)CC1` [Example 2-203, 4,4,4-trifluoro-1-[4-[2-[4-[4-[(1-methylimidazol-2-yl)methyl]piperazine-1-carbonyl]anilino]-[1,2,4]triazolo[1,5-a]pyridin-8-yl]-3,6-dihydro-2H-pyridin-1-yl]butan-1-one] was 1.52 nM.
In the case of `CC(=O)N1CC2(C1)CN(C(=O)c1ccc(Nc3nc4c(C5=CCN(C(=O)CCC(F)(F)F)CC5)cccn4n3)cc1)C2` [Example 2-204, 1-[4-[2-[4-(6-acetyl-2,6-diazaspiro[3.3]heptane-2-carbonyl)anilino]-[1,2,4]triazolo[1,5-a]pyridin-8-yl]-3,6-dihydro-2H-pyridin-1-yl]-4,4,4-trifluoro-butan-1-one], the inhibition constant Ki is 0.56 nM.
The value for `CN1CC2CN(C(=O)c3ccc(Nc4nc5c(C6=CCN(C(=O)CCC(F)(F)F)CC6)cccn5n4)cc3)CC(C1)O2` [Example 2-205, 4,4,4-trifluoro-1-[4-[2-[4-(7-methyl-9-oxa-3,7-diazabicyclo[3.3.1]nonane-3-carbonyl)anilino]-[1,2,4]triazolo[1,5-a]pyridin-8-yl]-3,6-dihydro-2H-pyridin-1-yl]butan-1-one] was 1.22 nM.
The value for `Cc1cncc(CNC(=O)c2ccc(Nc3nc4c(C5=CCN(C(=O)CCC(F)(F)F)CC5)cccn4n3)cc2)c1` [Example 2-206, N-[(5-methyl-3-pyridyl)methyl]-4-[[8-[1-(4,4,4-trifluorobutanoyl)-3,6-dihydro-2H-pyridin-4-yl]-[1,2,4]triazolo[1,5-a]pyridin-2-yl]amino]benzamide] was 4.58 nM.
The result for `NCC1CN(C(=O)c2ccc(Nc3nc4c(C5=CCN(C(=O)CCC(F)(F)F)CC5)cccn4n3)cc2)C1` [Example 2-207, 1-[4-[2-[4-[3-(aminomethyl)azetidine-1-carbonyl]anilino]-[1,2,4]triazolo[1,5-a]pyridin-8-yl]-3,6-dihydro-2H-pyridin-1-yl]-4,4,4-trifluoro-butan-1-one] reads 2.23 nM; that for `CC1CCN(C2CCN(C(=O)c3ccc(Nc4nc5c(C6=CCN(C(=O)CCC(F)(F)F)CC6)cccn5n4)cc3)CC2)CC1` [Example 2-208, 4,4,4-trifluoro-1-[4-[2-[4-[4-(4-methyl-1-piperidyl)piperidine-1-carbonyl]anilino]-[1,2,4]triazolo[1,5-a]pyridin-8-yl]-3,6-dihydro-2H-pyridin-1-yl]butan-1-one], 0.95 nM; that for `COCCN(C(=O)c1ccc(Nc2nc3c(C4=CCN(C(=O)CCC(F)(F)F)CC4)cccn3n2)cc1)C1CCN(C)CC1` [Example 2-209, N-(2-methoxyethyl)-N-(1-methyl-4-piperidyl)-4-[[8-[1-(4,4,4-trifluorobutanoyl)-3,6-dihydro-2H-pyridin-4-yl]-[1,2,4]triazolo[1,5-a]pyridin-2-yl]amino]benzamide], 1.99 nM.
For `O=C(CCC(F)(F)F)N1CC=C(c2cccn3nc(Nc4ccc(C(=O)N5CCC(N6CCOCC6)CC5)cc4)nc23)CC1` [Example 2-210, 4,4,4-trifluoro-1-[4-[2-[4-(4-morpholinopiperidine-1-carbonyl)anilino]-[1,2,4]triazolo[1,5-a]pyridin-8-yl]-3,6-dihydro-2H-pyridin-1-yl]butan-1-one], the Ki turned out to be 0.81 nM.
The value for `CN(CCc1cccnc1)C(=O)c1ccc(Nc2nc3c(C4=CCN(C(=O)CCC(F)(F)F)CC4)cccn3n2)cc1` [Example 2-212, N-methyl-N-[2-(3-pyridyl)ethyl]-4-[[8-[1-(4,4,4-trifluorobutanoyl)-3,6-dihydro-2H-pyridin-4-yl]-[1,2,4]triazolo[1,5-a]pyridin-2-yl]amino]benzamide] was 0.91 nM; that for `CC(C)(CNC(=O)c1ccc(Nc2nc3c(C4=CCN(C(=O)CCC(F)(F)F)CC4)cccn3n2)cc1)N1CCOCC1` [Example 2-213, N-(2-methyl-2-morpholino-propyl)-4-[[8-[1-(4,4,4-trifluorobutanoyl)-3,6-dihydro-2H-pyridin-4-yl]-[1,2,4]triazolo[1,5-a]pyridin-2-yl]amino]benzamide] was 0.75 nM; that for `CN1CCCCC1CNC(=O)c1ccc(Nc2nc3c(C4=CCN(C(=O)CCC(F)(F)F)CC4)cccn3n2)cc1` (stereo not shown) [Example 2-214, N-[(1-methyl-2-piperidyl)methyl]-4-[[8-[1-(4,4,4-trifluorobutanoyl)-3,6-dihydro-2H-pyridin-4-yl]-[1,2,4]triazolo[1,5-a]pyridin-2-yl]amino]benzamide] was 0.61 nM.
The result for `Cc1ccc(C2CCN(C(=O)c3ccc(Nc4nc5c(C6=CCN(C(=O)CCC(F)(F)F)CC6)cccn5n4)cc3)CC2)nc1` [Example 2-215, 4,4,4-trifluoro-1-[4-[2-[4-[4-(5-methyl-2-pyridyl)piperidine-1-carbonyl]anilino]-[1,2,4]triazolo[1,5-a]pyridin-8-yl]-3,6-dihydro-2H-pyridin-1-yl]butan-1-one] reads 0.55 nM; that for `Cc1cccc(CCNC(=O)c2ccc(Nc3nc4c(C5=CCN(C(=O)CCC(F)(F)F)CC5)cccn4n3)cc2)n1` [Example 2-216, N-[2-(6-methyl-2-pyridyl)ethyl]-4-[[8-[1-(4,4,4-trifluorobutanoyl)-3,6-dihydro-2H-pyridin-4-yl]-[1,2,4]triazolo[1,5-a]pyridin-2-yl]amino]benzamide], 0.78 nM.
